Assay results from the antibiotic and cytotoxicity screens of Wong et al. (2023).
The other results are listed elsewhere or left out.

Assays:
HSkMC = human skeletal muscle cells; test: cytotoxicity call (relative viability < 0.9); details: 10 µM
HepG2 = test: cytotoxicity call (relative viability < 0.9); details: 10 µM
S. aureus RN4220 = test: growth inhibition call (relative growth <= 0.2); details: 50 µM

| Structure (SMILES) | cytotoxicity call (HSkMC) | cytotoxicity call (HepG2) | growth inhibition call (S. aureus RN4220) |
| --- | --- | --- | --- |
| C[C@@H](O)C(=O)O.N | inactive | inactive | inactive |
| Cc1cc(C(=O)Nc2cccc3c2O[C@H](CN(C)Cc2ccc(C(=O)O)cc2)[C@H](C)CN([C@@H](C)CO)C3=O)n(C)n1 | inactive | inactive | inactive |
| Nc1ccc(S(N)(=O)=O)cn1 | inactive | inactive | inactive |
| CCCCCCCCCCCCC[N+](C)(C)Cc1ccccc1.O.[Cl-] | active | active | inactive |
| Cc1cc(C(=O)Nc2cccc3c2O[C@H](CN(C)S(=O)(=O)c2ccc(Cl)cc2)[C@H](C)CN([C@@H](C)CO)C3=O)n(C)n1 | inactive | inactive | inactive |
| COc1ccc(CN(C)C[C@H]2OCCCC[C@@H](C)Oc3ccc(NS(=O)(=O)c4ccccc4)cc3C(=O)N([C@@H](C)CO)C[C@@H]2C)cc1 | inactive | inactive | inactive |
| C[C@@H]1CN([C@H](C)CO)C(=O)c2cccc(NC(=O)Nc3ccc4c(c3)OCO4)c2O[C@H]1CN(C)C(=O)Nc1ccc(C(F)(F)F)cc1 | inactive | inactive | inactive |
| C[C@H]1CN([C@@H](C)CO)C(=O)c2cc(C#Cc3ccccn3)cnc2O[C@@H]1CN(C)C(=O)CCN1CCCCC1 | inactive | inactive | inactive |
| Cc1noc(C)c1NC(=O)N1C[C@H](O)COC[C@H]2O[C@H](CC(=O)N[C@H]3CCN(Cc4ccccc4)C3)CC[C@@H]21 | inactive | inactive | inactive |
| CN(C)CCCCCCNC(=O)[C@@H]1C[C@@H]2C(=O)NCC(=O)N2[C@@H]1c1cccc(OCCO)c1 | inactive | inactive | inactive |
| Cc1ccc(S(=O)(=O)N2C[C@@H](O)COC[C@H]3O[C@H](CC(=O)NCc4ccc(F)c(F)c4)CC[C@@H]32)cc1 | inactive | inactive | inactive |
| C[C@@H]1CCCCO[C@@H](CN(C)Cc2ccc(C(=O)O)cc2)[C@@H](C)CN([C@H](C)CO)C(=O)c2cc(NS(=O)(=O)c3ccccc3)ccc2O1 | inactive | inactive | inactive |
| C[C@@H]1CCCCO[C@@H](CN(C)C(=O)Nc2ccc3c(c2)OCO3)[C@@H](C)CN([C@H](C)CO)C(=O)c2cc(NC(=O)CCC(F)(F)F)ccc2O1 | inactive | inactive | inactive |
| C[C@H]1CN([C@@H](C)CO)C(=O)c2cc(NC(=O)CCCN(C)C)ccc2O[C@H]1CN(C)S(=O)(=O)c1ccc(Cl)cc1 | inactive | inactive | inactive |
| Cc1ccc(S(=O)(=O)Nc2ccc3c(c2)C(=O)N([C@@H](C)CO)C[C@H](C)[C@H](CN(C)S(=O)(=O)c2cn(C)cn2)O3)cc1 | inactive | inactive | inactive |
| Cc1ccc(S(=O)(=O)N(C)C[C@@H]2Oc3ccc(NC(=O)CCN4CCOCC4)cc3C(=O)N([C@@H](C)CO)C[C@@H]2C)cc1 | inactive | inactive | inactive |
| N=c1cc(N2CCCCC2)nc(N)n1OS(=O)(=O)O | inactive | inactive | inactive |
| C[C@H](CO)N1C[C@H](C)[C@H](CN(C)S(=O)(=O)c2cccs2)OCCCC[C@H](C)Oc2ccc(NC(=O)Nc3ccc4c(c3)OCO4)cc2C1=O | inactive | inactive | inactive |
| CC(C)NC(=O)N[C@H]1C=C[C@H](CC(=O)NCCN2CCCC2)O[C@@H]1CO | inactive | inactive | inactive |

| Structure (SMILES) | cytotoxicity call (HSkMC) | cytotoxicity call (HepG2) | growth inhibition call (S. aureus RN4220) |
| --- | --- | --- | --- |
| C[C@@H]1CCCCO[C@@H](CN(C)S(=O)(=O)c2ccc(Cl)cc2)[C@@H](C)CN([C@H](C)CO)C(=O)c2cc(NC(=O)Nc3ccc4c(c3)OCO4)ccc2O1 | inactive | inactive | inactive |
| CC(/C=C/C(=O)NO)=C\c1ccccc1OC[C@@H]1[C@H]2C[C@H]3c4[nH]c5ccccc5c4CCN3C[C@@H]2CC[C@@H]1O | inactive | inactive | inactive |
| CC(C)NC(=O)N(C)C[C@H]1OCCCC[C@@H](C)Oc2ccc(NC(=O)Nc3ccc(F)cc3)cc2C(=O)N([C@@H](C)CO)C[C@H]1C | inactive | inactive | inactive |
| C[C@H](CO)N1C[C@H](C)[C@H](CN(C)C(=O)Nc2ccccc2F)Oc2ncc(C#CCN(C)C)cc2C1=O | inactive | inactive | inactive |
| C[C@@H]1CCCCO[C@@H](CN(C)C(=O)C2CCCCC2)[C@H](C)CN([C@H](C)CO)C(=O)c2cc(NC(=O)Nc3ccccc3)ccc2O1 | inactive | inactive | inactive |
| C[C@@H]1CN([C@@H](C)CO)C(=O)c2cc(NS(=O)(=O)c3ccccc3)ccc2O[C@@H](C)CCCCO[C@@H]1CN(C)Cc1ccc(C(=O)O)cc1 | inactive | inactive | inactive |
| O=C(C[C@@H]1CC[C@@H](NS(=O)(=O)c2ccc(F)cc2)[C@H](CO)O1)NCc1ccc(Cl)c(Cl)c1 | inactive | inactive | inactive |
| C[C@@H]1CCCCO[C@@H](CN(C)C(=O)C2CCCCC2)[C@@H](C)CN([C@H](C)CO)C(=O)c2cc(NC(=O)CCCCCC(=O)Nc3ccccc3N)ccc2O1 | inactive | inactive | inactive |
| C[C@@H]1CN([C@@H](C)CO)C(=O)c2cc(NC(=O)CCCN(C)C)ccc2O[C@@H](C)CCCCO[C@H]1CN(C)CC1CCCCC1 | inactive | inactive | inactive |
| COc1ccc(S(=O)(=O)N[C@H]2C=C[C@@H](CC(=O)N3CCC(Cc4ccccc4)CC3)O[C@H]2CO)cc1 | inactive | inactive | inactive |
| CC(C)NC(=O)N(C)C[C@H]1Oc2ccc(NC(=O)Nc3ccc4c(c3)OCO4)cc2C(=O)N([C@H](C)CO)C[C@H]1C | inactive | inactive | inactive |
| OC[C@H]1O[C@@H](Nc2ccccn2)[C@@H](O)[C@@H](O)[C@@H]1O | inactive | inactive | inactive |
| C[C@H]1CN([C@@H](C)CO)C(=O)c2c(c3ccccc3n2C)-c2ccccc2CO[C@H]1CN(C)S(C)(=O)=O | inactive | inactive | inactive |
| NC(=O)[C@@H]1CCCN1C(=O)[C@H](Cc1c[nH]cn1)NC(=O)[C@@H]1CCC(=O)N1 | inactive | inactive | inactive |
| C[C@@H]1CN([C@H](C)CO)C(=O)c2cc(NC(=O)CCN3CCOCC3)ccc2O[C@H]1CN(C)S(=O)(=O)c1ccc(F)cc1 | inactive | inactive | inactive |
| CCOC(=O)N1C(=O)[C@@]2(CCCOC2)N(c2ccc(C)cc2)C1=S.CCOC(=O)N1C(=O)[C@]2(CCCOC2)N(c2ccc(C)cc2)C1=S | inactive | inactive | inactive |
| C[C@@H]1CCCCO[C@H](CN(C)CC2CCCCC2)[C@H](C)CN([C@@H](C)CO)C(=O)c2cc(NC(=O)c3ccccc3)ccc2O1 | inactive | inactive | inactive |
| C[C@H](CO)N1C[C@H](C)[C@H](CN(C)Cc2ccc(C(F)(F)F)cc2)OCCCC[C@H](C)Oc2ccc(NS(C)(=O)=O)cc2C1=O | inactive | inactive | inactive |
